The supplement of paper PMC10369915
The other results are listed elsewhere or left out. Rule as the data show it: active = 3.2 or more and inactive = the rest. Only a few entries rise above the background.

Tests used:
Assay in all cases: enrichment score (SH2-bound / input frequency) (ratio); bacterial display of known human phosphotyrosine sites (pTyr-Var adds point mutants) read by sequencing; higher = stronger binding; tyrosines were phosphorylated by kinases first
Conditions in all cases: peptide library: pTyr-Var
SHP2 C-SH2 domain E139D = molecular target: SHP2 C-SH2 domain E139D
[1] = molecular target: SHP2 C-SH2 domain wild-type
SHP2 N-SH2 domain L43F = molecular target: SHP2 N-SH2 domain L43F
SHP2 N-SH2 domain T42A = molecular target: SHP2 N-SH2 domain T42A
SHP2 N-SH2 domain T52S = molecular target: SHP2 N-SH2 domain T52S
[2] = molecular target: SHP2 N-SH2 domain wild-type

Measured: enrichment score
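Also: displayed peptides selected on beads carrying the immobilized SH2 domain, with library peptides lacking any tyrosine serving as negative controls.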

EDKFMYLEFPQ [PTEN_Y240_F241L]
inactive: SHP2 C-SH2 domain E139D 0.81 | [1] 0.838 | SHP2 N-SH2 domain L43F 0.941 | SHP2 N-SH2 domain T42A 0.722 | SHP2 N-SH2 domain T52S 0.711 | [2] 0.951

LFFFSYLLKNH [PTEN_Y180_V175L_YF]
inactive: SHP2 C-SH2 domain E139D 1.47 | [1] 1.31 | SHP2 N-SH2 domain L43F 1.13 | SHP2 N-SH2 domain T42A 1.25 | SHP2 N-SH2 domain T52S 1.16 | [2] 1.15

RREGVYRNNID [PTEN_Y46_L42R]
inactive: SHP2 C-SH2 domain E139D 0.218 | [1] 0.348 | SHP2 N-SH2 domain L43F 0.377 | SHP2 N-SH2 domain T42A 0.392 | SHP2 N-SH2 domain T52S 0.248 | [2] 0.373

NHYKIYNLYAE [PTEN_Y68_C71Y]
inactive: SHP2 C-SH2 domain E139D 0.651 | [1] 0.81 | SHP2 N-SH2 domain L43F 0.886 | SHP2 N-SH2 domain T42A 0.651 | SHP2 N-SH2 domain T52S 0.817 | [2] 0.799

RCFVFYFSFLL [PTEN_Y177_R173C_YF]
inactive: SHP2 C-SH2 domain E139D 1.52 | [1] 1.16 | SHP2 N-SH2 domain L43F 0.953 | SHP2 N-SH2 domain T42A 1.12 | SHP2 N-SH2 domain T52S 1.58 | [2] 1.08

PFVFFYSFLLK [PTEN_Y178_R173P_YF]
inactive: SHP2 C-SH2 domain E139D 1.51 | [1] 1.22 | SHP2 N-SH2 domain L43F 1.49 | SHP2 N-SH2 domain T42A 1.26 | SHP2 N-SH2 domain T52S 1.32 | [2] 1.32

VYYYSYLLKNH [PTEN_Y180]
inactive: SHP2 C-SH2 domain E139D 1.43 | [1] 1.5 | SHP2 N-SH2 domain L43F 1.63 | SHP2 N-SH2 domain T42A 1.18 | SHP2 N-SH2 domain T52S 1.36 | [2] 1.19

RRFLFYFSFLL [PTEN_Y177_V175L_YF]
inactive: SHP2 C-SH2 domain E139D 0.296 | [1] 0.273 | SHP2 N-SH2 domain L43F 0.488 | SHP2 N-SH2 domain T42A 0.323 | SHP2 N-SH2 domain T52S 0.345 | [2] 0.305

RFVFFYSFLLK [PTEN_Y178_YF]
inactive: SHP2 C-SH2 domain E139D 1.49 | [1] 1.23 | SHP2 N-SH2 domain L43F 1.27 | SHP2 N-SH2 domain T42A 1.26 | SHP2 N-SH2 domain T52S 1.3 | [2] 0.774

DLDLTYIYPNI [PTEN_Y27]
inactive: SHP2 C-SH2 domain E139D 1.06 | [1] 0.99 | SHP2 N-SH2 domain L43F 0.886 | SHP2 N-SH2 domain T42A 0.737 | SHP2 N-SH2 domain T52S 0.985 | [2] 0.985

NHYKIYNLCAE [PTEN_Y68]
inactive: SHP2 C-SH2 domain E139D 0.903 | [1] 0.833 | SHP2 N-SH2 domain L43F 0.82 | SHP2 N-SH2 domain T42A 0.849 | SHP2 N-SH2 domain T52S 0.916 | [2] 0.995

HYVYYYSYLLK [PTEN_Y178_R173H]
inactive: SHP2 C-SH2 domain E139D 0.778 | [1] 1.01 | SHP2 N-SH2 domain L43F 0.689 | SHP2 N-SH2 domain T42A 0.63 | SHP2 N-SH2 domain T52S 0.847 | [2] 1.2

RYVYYYSYLLK [PTEN_Y178]
inactive: SHP2 C-SH2 domain E139D 2.18 | [1] 2.09 | SHP2 N-SH2 domain L43F 2.21 | SHP2 N-SH2 domain T42A 2.19 | SHP2 N-SH2 domain T52S 2.28 | [2] 2.35

CFVFFYSFLLK [PTEN_Y178_R173C_YF]
inactive: SHP2 C-SH2 domain E139D 1.71 | [1] 2.05 | SHP2 N-SH2 domain L43F 2.02 | SHP2 N-SH2 domain T42A 1.93 | SHP2 N-SH2 domain T52S 1.98 | [2] 1.57

EDKFMYSEFPQ [PTEN_Y240_F241S]
inactive: SHP2 C-SH2 domain E139D 0.694 | [1] 0.583 | SHP2 N-SH2 domain L43F 0.746 | SHP2 N-SH2 domain T42A 0.572 | SHP2 N-SH2 domain T52S 0.596 | [2] 0.638

HFVFFYSFLLK [PTEN_Y178_R173H_YF]
inactive: SHP2 C-SH2 domain E139D 1.39 | [1] 1.93 | SHP2 N-SH2 domain L43F 1.62 | SHP2 N-SH2 domain T42A 2 | SHP2 N-SH2 domain T52S 1.13 | [2] 1.65

CYVYYYSYLLK [PTEN_Y178_R173C]
inactive: SHP2 C-SH2 domain E139D 0.776 | [1] 1.14 | SHP2 N-SH2 domain L43F 0.898 | SHP2 N-SH2 domain T42A 0.788 | SHP2 N-SH2 domain T52S 1.14 | [2] 1.26

EDKFMYFEFPQ [PTEN_Y240]
inactive: SHP2 C-SH2 domain E139D 1.07 | [1] 1.35 | SHP2 N-SH2 domain L43F 1.19 | SHP2 N-SH2 domain T42A 1.12 | SHP2 N-SH2 domain T52S 1.08 | [2] 1.24

DLDLTSIFPNI [PTEN_Y27_Y27S_YF]
inactive: SHP2 C-SH2 domain E139D 1.05 | [1] 0.895 | SHP2 N-SH2 domain L43F 0.866 | SHP2 N-SH2 domain T42A 0.705 | SHP2 N-SH2 domain T52S 1 | [2] 1.1
